# Reference: ChEMBL document CHEMBL1157539, “Thousands of chemical starting points for antimalarial lead identification” (Nature, 2010)
# The full ranking holds about 13,000 compounds; the median of “IFI” is about 4, and the highest 2% start at about 17. Some of the results follow.
# Experiment: GSK_TCMDC: Inhibition Frequency Index (IFI). The number of non-kinase HTS assays where a compound showed > 50 % inhibition, expressed as a percentage of the number of such assays in which the compound was tested (-0 is zero)
# Format: functional
row,Compound,IFI
1,CNC(=O)C(C)N(c1ccc(Cl)cc1)c1nc(C(C)(C)C)cs1 (stereo not given),4.76%
2,CC(=O)c1ccc2c(c1)CCN(CCC1CCC(NC(=O)c3cc4ccccc4[nH]3)CC1)CC2 (stereo not given),11.6%
3,O=C(Nc1cccc(N2CCC(NCc3cccnc3)CC2)c1)c1cccc(C(F)(F)F)c1,-0%
4,Cc1cccc(-c2nn(-c3ccccc3)cc2C(=O)Nc2nnc(C)o2)c1,4.08%
5,Cc1noc(C)c1-c1cccc(CNCc2cccc(-c3ccc(-c4nc5ccccc5[nH]4)cc3)c2)c1,7.69%
6,Cc1cc(N2Cc3ccccc3C2)nc(Nc2ccc(S(=O)(=O)N3CCOCC3)cc2)n1,0%
7,Cc1cc(C)cc(Oc2c(C(F)(F)F)oc3c(CN4CC(C)OC(C)C4)c(O)ccc3c2=O)c1 (stereo not given),-0%
8,CC(C)COc1ccc(Cl)cc1Cc1nc(-c2nc3ccc(CN4CCCC4)cc3[nH]2)co1,16.1%
9,O=C(Nc1ccc(Cn2ncc(N3CCCNCC3)c(Cl)c2=O)cc1)Nc1cccc(SC(F)(F)F)c1,5.88%
10,Clc1ccc(-c2cc(-c3csc(Nc4ccncc4)n3)on2)cc1,2.11%
11,CCN(CC)CCN(CCCc1ccc(-c2ccc(C(F)(F)F)cc2)cc1)C(=O)Cn1c(CCc2cccc(F)c2F)nc(=O)c2c1CCC2,11.5%
12,COc1ccc(C(=O)NC(c2ccc(Cl)cc2Cl)c2cc(Cl)c3cccnc3c2O)cc1 (stereo not given),5.41%
13,COc1ccc(-c2nc3cccnc3n2CC(=O)Nc2c(C)cc(C)cc2C)c(OC)c1,5.56%
14,Clc1ccc(/N=C(/NCCCCCCCN/C(=N\c2ccc(Cl)cc2)Nc2ccc(Cl)cc2)Nc2ccc(Cl)cc2)cc1,17.1%
15,COc1cc(NCCCCCNc2cc(Cl)nc3ccccc23)nc2ccccc12,15.8%
16,O=C(/C=C/c1ccc(Cl)c(Cl)c1)NCCCCCN1CCCN(C(=S)Nc2ccc(Cl)c(Cl)c2)CC1,5.65%
17,C=CC[C@@H](C(=O)OCC)[C@@H]1[C@@H](N(CC=C)C(=O)OC(C)(C)C)CCN1C(=O)OCc1ccccc1,0.73%
18,CCN(CC)CCNC(=O)c1ccc(NC(=O)c2oc3c(Cl)cccc3c2C)cc1,4.76%
19,CC1CCCN1Cc1ccc(-c2ccc3c(=O)cc(CCc4cccc(F)c4F)n(CC(=O)N(C)Cc4ccc(-c5ccc(C(F)(F)F)cc5)cc4)c3n2)cc1 (stereo not given),5.63%
20,CN(C)CC1CCCN1Cc1ccccc1-c1cnn(C)c(=O)c1Oc1ccc(F)cc1 (stereo not given),3.45%
21,O=C(Cc1ccc(-n2cnnn2)cc1)N(Cc1cncn1Cc1cccc(C(F)(F)F)c1)CC1CC1,-0%
22,FC(F)(F)c1cccc2c(NN=Cc3ccccc3)ccnc12,8.2%
23,C=CCc1ccccc1OCC(O)CN(C1CCCCC1)C1CCCCC1 (stereo not given),4.96%
24,COCCNCc1cccc(-c2ccc(CNC3CCN(Cc4ccccc4)CC3)cc2)c1,2.86%
25,Cc1cccc2nc(-c3ccc(-c4cccc(NC(=O)C(=O)c5cccn5C)c4)cc3)[nH]c12,1.8%
26,COc1ccc(Nc2nccc(-c3c(-c4cccc(NC(=O)c5c(F)cccc5F)c4)nn4ccccc34)n2)cc1Cl,2.8%
27,Cc1cc(Nc2ncc(Cl)c(Nc3ccccc3C(N)=O)n2)n[nH]1,0%
28,Cc1cc(=NN=Cc2cccc(F)c2)c2ccc(F)cc2[nH]1,0%

row,Compound,IFI
1,O=C(Nc1cccc(-c2cc(-c3c(Cl)cccc3Cl)no2)c1)c1cnc2ccccc2c1,-0%
2,Cc1cccc(NC(=O)Nc2ccc(I)c(OCCN(C)C)c2)c1C,2.88%
3,COc1ccc2nccc([C@@H](O)CN3CCC(NCc4cc5cccc(O)c5[nH]4)CC3)c2c1,4.96%
4,Cc1cc(Cl)ccc1OC(C)C(=O)N1CCc2ccccc21 (stereo not given),2.86%
5,CCCN(CCC)CCCCC(C)Nc1c2ccc(Cl)cc2nc2ccc(OC)cc12 (stereo not given),3.05%
6,COc1ccc2nc(C)cc(Nc3ccc(Oc4ccc(Cl)cc4)c(Cl)c3)c2c1,5.3%
7,Cc1cc(N(C)C)nc(Nc2ccc(NC(=O)C3CCCCC3)cc2)n1,3.85%
8,COc1cc2nc(N3CCC(CNC(=O)c4ccc(-c5ccc(C(=O)N(C)C)cc5O)cc4)CC3)nc(N)c2cc1OC,1.8%
9,CC(C)c1ccc(CN2CCC(CNC(=O)c3cc(-c4cccc(F)c4)cs3)C2)cc1 (stereo not given),14.3%
10,Cc1ccc(O)c(-c2cc(C(=O)Nc3ccc(S(=O)(=O)N4CCCCCC4)cc3)[nH]n2)c1,1.54%
11,Cc1ccc(Cn2nc(Cl)c(N3CCCNCC3)cc2=O)cc1NC(=O)Nc1ccc(-c2ccccc2)cc1,5.52%
12,Nc1ncc(-c2ccsc2)c2ccc(-c3cnc[nH]3)cc12,2.92%
13,Cc1c(S(=O)(=O)Nc2ccc3ccn(CCN(C)C)c3c2)sc2ccc(Cl)cc12,4.35%
14,CCCc1cc(C(=O)N[C@@H](Cc2ccccc2)[C@H](O)CNC2CCOCC2)c(F)c(N2CCCCS2(=O)=O)c1,0.72%
15,C[C@H](NC(=O)[C@H](CCCCNC(=O)OC(C)(C)C)NC(=O)OC(C)(C)c1ccc(-c2ccccc2)cc1)C(=O)OCc1ccccc1,2.84%
16,CCc1cn2c3c(cc(C(=O)N[C@@H](Cc4ccccc4)[C@H](O)CNC4CCOCC4)cc13)N(C)S(=O)(=O)C2,3.62%
17,CC1=C(C(=O)Nc2ccccc2)C(c2ccc([N+](=O)[O-])cc2)n2ncc(C(=O)Nc3ccccc3)c2N1 (stereo not given),0%
18,NC(=S)Cc1ccc2c(c1)OCO2,4.26%
19,Cc1[nH]c(C)c(-c2ccc(OCc3cc(F)cc(F)c3)nc2)c(=O)c1Cl,7.02%
20,Cc1cc(C(=O)Nc2ccc(C)c(-c3nc(N(C(=O)c4ccc(F)c(C)c4)C4CCNCC4)nc4c3ccc(=O)n4-c3c(F)cccc3F)c2)ccc1F,1.01%
21,FC(F)(F)c1ccc(/C=C/c2cncnc2Nc2ccc3[nH]c(Cc4ccccc4)nc3c2)cc1,0.74%
22,CCCCCCN1CCCN(Cc2ccc(C(=O)Nc3ccc(F)c(F)c3)cc2)CC1,9.45%
23,O=C(NCCc1ccc(Cl)c(Cl)c1)c1ccc(CNC(=O)c2ccc(O)c(-c3ccc(Cl)c(Cl)c3)c2)cc1,1.48%
24,N#CCSc1nnc(-c2ccccc2)c2ccccc12,2.05%
25,FC(F)(F)c1ccc(CNC2CCN(CC3CCCCC3)CC2)cc1,2.03%
26,CC(Nc1ncc(-c2ccsc2)c(-c2nccs2)n1)c1ccc2c(c1)OCCO2 (stereo not given),4.49%
27,COc1ccc2nccc([C@@H](O)CN3CCC(NCc4cc5oc(=O)[nH]c5cc4F)CC3)c2c1,0.74%
